From ChEMBL document CHEMBL1201862, “PubChem BioAssay data set” (2004)
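Where inhibition never reached the appropriate level, the endpoint shown equals the highest concentration tested. Otherwise, values were interpolated linearly from a five-concentration, 48-hour dose response in 96-well plates. Abbreviation: GI50, concentration required for 50% inhibition of growth.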 The source made the active and inactive calls. Rule as the data show it: active = GI50 up to about 1.1 µM and inactive = higher.

What follows are compounds tested on NCI-H322M (assay: NCI anticancer screen, dose series, 48 h).

SMILES	GI50
COc1cc2nc(-c3cccs3)nc(Nc3cccc([N+](=O)[O-])c3)c2cc1OC	inactive: 17 µM
Cc1cc(OCC(O)CO)ccc1Cl (configuration not stated)	inactive: > 100 µM
O=C1c2ccccc2-c2[nH]c3cn[nH]c(=O)c3c21	inactive: > 100 µM
C=C(C)C1CCC2(C)CC1c1c(c(C)cc3c1[nH]c1ccccc13)O2 (configuration not stated)	inactive: > 25 µM
C=CCSc1nnc2cc(CN3CCCC3)c(-c3ccc(Cl)cc3)nn12	inactive: 15.3 µM
C[Si](C)(C)c1ccc(-c2c3ccc(-c4cc(Br)cc(Br)c4)nc3nc3nc(-c4cc(Br)cc(Br)c4)ccc23)cc1	inactive: > 100 µM
N#Cc1c(-c2ccccc2)[nH]c(=O)n(C2OC(CO)C(O)C(O)C2O)c1=O (configuration not stated)	inactive: > 100 µM
O/N=C1/C2CC3CC1(c1ccccc1)CC(/C3=N/O)/C2=N\O (configuration not stated)	inactive: > 100 µM
N#CCCN(C(=O)Nc1ccccc1)[C@H]1CCCC[C@@H]1N(C(=O)Nc1ccccc1)c1ccccc1	inactive: > 100 µM
Brc1ccc(CCNCCN2CCCCC2)cc1	inactive: 14.3 µM
CCn1c2c(n(CC)c1=S)-c1c(n(CC)c(=S)n1CC)SSSS2	inactive: > 74.5 µM
COc1ccc(/C=C(\C(=C/c2ccc(OC)cc2)[N+](=O)[O-])[N+](=O)[O-])cc1	inactive: 16.6 µM
COC(=O)CC(c1ccccc1)C1(c2ccccc2)SCCS1 (configuration not stated)	inactive: > 290 µM
COc1cc(C(=O)OCCn2[nH]c(-c3ccc(Cl)cc3)nc2=S)cc(OC)c1OC	inactive: > 100 µM
C#CCN(Cc1ccc2nc(-c3ccccc3)c(N)nc2c1)c1cc(OC)c(OC)c(OC)c1	inactive: 56.2 µM
OCCOCCN1CCN(CCCN2c3ccccc3Sc3ccc(C(F)(F)F)cc32)CC1	inactive: 13.1 µM
CC[C@H](O)[C@H](C)C=C1SCCCS1	inactive: > 100 µM
COc1ccc2c(c1O)-c1cc(O)cc3c1[C@@H](C2)N(C)CC3	inactive: 57.1 µM
C[N+](C)(C)CC(=O)N/N=C(\C(=O)NC1=C(Cl)C(=O)c2ccccc2C1=O)C(C#N)c1csc(-c2ccc([N+](=O)[O-])cc2)n1 (configuration not stated)	inactive: > 100 µM
Cc1ccc2c(O)cc(-c3ccc(Cl)s3)nc2n1	inactive: 1.46 µM
NNc1nncc2[nH]cnc12	inactive: > 100 µM
COc1cccc2c1C(=O)c1c(O)c3c(c(O)c1C2=O)CC(O)(C(C)=O)CC3OC1OC(COC(C)=O)C(OC(C)=O)C(OC(C)=O)C1OC(C)=O (configuration not stated)	inactive: 93.5 µM
N=C(N)N/N=C(/c1nc2ccc([N+](=O)[O-])cc2[nH]c1=O)C(O)c1ccc([N+](=O)[O-])cc1 (configuration not stated)	inactive: 80.9 µM
C[N+](C)(C)CC1CCCc2ccccc2C1=O (configuration not stated)	inactive: 18 µM

SMILES	GI50
CCOC(=O)c1c(NC(=O)c2cccs2)sc2c1CCC2	inactive: > 100 µM
O=c1[nH]cc(-c2c[nH]c3ccccc23)nc1-c1c[nH]c2ccccc12	inactive: 15.6 µM
C=C1CC(COc2cc(=O)oc3ccccc23)(c2ccccc2)OC1=O (configuration not stated)	inactive: 12.8 µM
N[C@@H](CCC(=O)NCP(=O)(O)O)C(=O)O	inactive: > 100 µM
COc1ccc(Br)c(N/N=C2\CCCNC2=O)c1	inactive: > 100 µM
O=C1C(Cl)=C(N2CCN(c3ncccn3)CC2)C(=O)c2c(O)ccc(O)c21	inactive: 3.79 µM
C/C(CC(=O)Nc1ccc(Cl)c(Cl)c1)=N/NC(=O)C[N+](C)(C)C	inactive: > 100 µM
COc1ccc(P2(=S)SP(=S)(c3ccc(Cl)cc3)S2)cc1 (configuration not stated)	inactive: > 100 µM
O=C1CC(CC(=O)C2CCCCC2=O)C(=O)N1 (configuration not stated)	inactive: > 100 µM
O=C1c2ccccc2C(Br)(Br)c2ccccc21	inactive: > 100 µM
O=C(NC(Cc1ccc(I)cc1)C(=O)O)c1cccc(Br)c1 (configuration not stated)	inactive: > 100 µM
CCCCCCCCCCCCCCCCOCC(COP(=O)(O)OCC1OC(n2cc(CC)c(=O)[nH]c2=O)CC1O)OC(=O)CCCCCCCCCCCCCCC (configuration not stated)	inactive: > 100 µM
Nc1ncnc2c1nnn2C1C=C(CO)C(O)C1O (configuration not stated)	inactive: 43.5 µM
CCOC(=O)C(Cc1ccc2c(c1)CCC2)Cc1ccc2c(c1)CCC2	inactive: > 100 µM
CCOc1ccc2nc(NC(=O)/C(CC(=O)CC(C3=C(O)c4ccccc4CC3=O)c3ccccc3)=N\O)sc2c1 (configuration not stated)	inactive: > 100 µM
CCCCC/C(=N\c1[nH]nnc1C(N)=O)OCC	inactive: > 100 µM
NC(=O)c1ccccc1NC(=O)C(=O)Nc1n[nH]c(N)n1	inactive: > 100 µM
CC1=NN2C(=N)/C(=C/c3ccccc3)C(=O)N=C2S1	inactive: > 100 µM
CC1C=C[C@H](Sc2ccccc2)CC[C@@]1(C)O (some centres not stated)	inactive: > 100 µM
NS(=O)(=O)c1nnc(NS(=O)(=O)c2ccc(F)cc2)s1	inactive: > 100 µM
Sc1ncc(-c2cncc(-c3cnc(S)nc3)n2)cn1	inactive: > 100 µM
CCCNC(=O)N1CC(CN2CCN(c3ccccc3)CC2)O/C1=N/C(=O)Nc1ccccc1 (configuration not stated)	inactive: > 100 µM
Nc1nc(-c2cccnc2)cc(-c2cc(-c3cccnc3)nc(N)n2)n1	inactive: > 100 µM
